No constants are given. Whether binding was seen depends on the method and setting. For some of these results: Binding seen in cells or lysates may run through a third protein. Some binding calls cover weakened binding; strength is not graded here. Sequences can lack the tags named with a protein.

Sequences of proteins named here, by UniProt entry; tags and fusion partners are left off. A change or cut given only in a name is not applied to a line headed by its entry. A line that says so, or that is headed by a name, gives the form on record, which may keep a tag or linker.
UniProt O82481: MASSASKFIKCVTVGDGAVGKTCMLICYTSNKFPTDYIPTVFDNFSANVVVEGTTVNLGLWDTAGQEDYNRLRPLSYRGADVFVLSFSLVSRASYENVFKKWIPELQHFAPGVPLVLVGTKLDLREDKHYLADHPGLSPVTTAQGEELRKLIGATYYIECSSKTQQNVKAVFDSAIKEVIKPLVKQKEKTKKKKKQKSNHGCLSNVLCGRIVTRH
YN-rop11CA (constitutively active ROP11 fused at its N-terminus to the N-terminal half of YFP) (O82481, form named): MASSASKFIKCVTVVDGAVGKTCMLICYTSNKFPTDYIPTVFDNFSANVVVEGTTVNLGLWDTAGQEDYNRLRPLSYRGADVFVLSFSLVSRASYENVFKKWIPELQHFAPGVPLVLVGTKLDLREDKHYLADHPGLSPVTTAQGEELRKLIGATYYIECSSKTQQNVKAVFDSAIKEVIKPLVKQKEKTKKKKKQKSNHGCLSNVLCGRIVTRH

Consider 5 molecules from PMC9845754.

Experiment [1] deals with YN-rop11CA (constitutively active ROP11 fused at its N-terminus to the N-terminal half of YFP) (Arabidopsis) (UniProt O82481). Nature of the experiment: split reporter; BiFC; YN and YC fusions transiently co-expressed in N. benthamiana leaf epidermis, confocal imaging; for the ICR-ICR pairs lambda stacks excited at 514 nm, emission 521-690 nm, unmixed for the YFP signal.
In experiment [2] the target is T1, ICR3 (interactor of constitutively active ROP 3) fused to a half of YFP for BiFC (Arabidopsis) (UniProt Q9LSS5).
T1 sequence: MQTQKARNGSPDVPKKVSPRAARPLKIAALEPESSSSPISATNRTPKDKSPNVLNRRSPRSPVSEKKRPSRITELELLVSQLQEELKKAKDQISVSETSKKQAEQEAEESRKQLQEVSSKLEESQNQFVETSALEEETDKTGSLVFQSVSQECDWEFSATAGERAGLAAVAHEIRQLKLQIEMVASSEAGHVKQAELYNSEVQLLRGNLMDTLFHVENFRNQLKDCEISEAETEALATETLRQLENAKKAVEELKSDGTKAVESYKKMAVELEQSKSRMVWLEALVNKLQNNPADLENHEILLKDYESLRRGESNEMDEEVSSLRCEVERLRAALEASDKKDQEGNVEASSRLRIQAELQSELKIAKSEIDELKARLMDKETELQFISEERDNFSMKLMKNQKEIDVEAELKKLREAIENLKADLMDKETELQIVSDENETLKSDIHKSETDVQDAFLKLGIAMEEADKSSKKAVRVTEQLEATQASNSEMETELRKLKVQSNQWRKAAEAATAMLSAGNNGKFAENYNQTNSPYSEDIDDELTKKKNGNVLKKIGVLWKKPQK
The description is as above.

Experiment [3] has as its target T2, ICR5 (interactor of constitutively active ROP 5) fused to a half of YFP for BiFC (Arabidopsis) (UniProt Q8VYU8).
T2 sequence: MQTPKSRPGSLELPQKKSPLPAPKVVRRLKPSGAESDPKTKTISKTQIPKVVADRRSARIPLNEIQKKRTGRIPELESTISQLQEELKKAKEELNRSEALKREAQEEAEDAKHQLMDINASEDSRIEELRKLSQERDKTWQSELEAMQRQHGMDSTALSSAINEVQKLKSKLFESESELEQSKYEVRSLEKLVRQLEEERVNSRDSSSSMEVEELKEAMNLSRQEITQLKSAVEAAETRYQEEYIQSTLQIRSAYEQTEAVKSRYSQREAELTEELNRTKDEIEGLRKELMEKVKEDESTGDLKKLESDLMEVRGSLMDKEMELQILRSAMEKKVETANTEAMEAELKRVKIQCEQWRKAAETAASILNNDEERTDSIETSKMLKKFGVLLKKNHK
Described as above.

For experiment [4], the target named is T3, ICR3, yeast two-hybrid fusion (Arabidopsis) (UniProt Q9LSS5).
T3 sequence: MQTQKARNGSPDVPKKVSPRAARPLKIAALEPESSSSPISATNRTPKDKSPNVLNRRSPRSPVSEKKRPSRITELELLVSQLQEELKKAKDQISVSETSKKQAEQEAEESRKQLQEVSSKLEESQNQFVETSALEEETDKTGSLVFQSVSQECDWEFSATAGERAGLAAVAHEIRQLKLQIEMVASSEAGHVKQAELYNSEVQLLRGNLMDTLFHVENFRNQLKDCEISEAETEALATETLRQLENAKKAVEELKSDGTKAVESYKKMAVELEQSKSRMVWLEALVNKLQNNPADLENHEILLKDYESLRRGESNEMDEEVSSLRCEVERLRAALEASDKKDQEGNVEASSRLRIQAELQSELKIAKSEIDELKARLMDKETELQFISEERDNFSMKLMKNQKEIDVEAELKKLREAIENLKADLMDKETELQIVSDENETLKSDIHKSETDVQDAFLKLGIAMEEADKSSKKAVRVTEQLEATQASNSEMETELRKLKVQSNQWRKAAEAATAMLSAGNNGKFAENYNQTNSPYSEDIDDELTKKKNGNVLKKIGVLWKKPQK
Briefly: two-hybrid; yeast two-hybrid in S. cerevisiae PJ69-4a; pGBT9.BS and pGAD.GH fusions; growth of four decimal dilutions on -Leu -Trp -His medium with 1 mM 3AT, 28°C.

The target of experiment [5] is T4, ICR5, yeast two-hybrid fusion (Arabidopsis) (UniProt Q8VYU8).
T4 sequence: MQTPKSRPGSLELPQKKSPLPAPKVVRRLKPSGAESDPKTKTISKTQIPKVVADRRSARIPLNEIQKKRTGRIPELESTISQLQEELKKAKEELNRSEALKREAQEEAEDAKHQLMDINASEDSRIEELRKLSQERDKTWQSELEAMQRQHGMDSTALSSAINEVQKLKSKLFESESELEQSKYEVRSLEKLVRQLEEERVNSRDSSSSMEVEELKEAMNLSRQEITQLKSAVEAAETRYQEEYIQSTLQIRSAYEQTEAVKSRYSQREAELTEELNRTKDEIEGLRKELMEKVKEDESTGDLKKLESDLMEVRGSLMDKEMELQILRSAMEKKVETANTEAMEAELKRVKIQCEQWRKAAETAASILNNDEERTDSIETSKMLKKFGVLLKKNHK
The experiment is described as above.

The target in experiment [6] is T5, ICR5-YC (interactor of constitutively active ROP 5 fused to the C-terminal half of YFP) (Arabidopsis) (UniProt Q8VYU8).
T5 sequence: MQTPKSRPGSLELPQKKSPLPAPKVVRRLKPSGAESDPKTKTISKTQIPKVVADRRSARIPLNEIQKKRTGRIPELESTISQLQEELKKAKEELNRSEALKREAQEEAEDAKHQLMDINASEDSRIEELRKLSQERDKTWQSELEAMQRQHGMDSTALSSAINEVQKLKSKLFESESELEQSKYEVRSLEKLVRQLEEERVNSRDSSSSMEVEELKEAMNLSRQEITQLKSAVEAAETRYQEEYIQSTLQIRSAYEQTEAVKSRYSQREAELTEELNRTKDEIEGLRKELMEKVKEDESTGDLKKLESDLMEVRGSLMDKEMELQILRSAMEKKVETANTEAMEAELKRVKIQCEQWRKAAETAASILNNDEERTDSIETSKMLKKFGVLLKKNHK
Briefly: split reporter; BiFC with halves of YFP (YN, YC), transient expression in N. benthamiana leaf epidermis cells; confocal imaging, for some panels lambda scan 521-690 nm and linear unmixing of the YFP signal.

The target in another experiment is YN-ROP11 (UniProt O82481). Described as above.
Experiment [7] has as its target T3, ICR3, yeast two-hybrid fusion (Arabidopsis). Nature of the experiment: two-hybrid; S. cerevisiae PJ69-4a; dilution series 1, 1/10, 1/100, 1/1,000 on -Leu, Trp, His (-LTH) plates with 1 mM 3-AT, -LT plates as growth control; 28°C.
Experiment [8] deals with T6, ICR2, yeast two-hybrid fusion (Arabidopsis) (UniProt Q9ZQC5).
T6 sequence: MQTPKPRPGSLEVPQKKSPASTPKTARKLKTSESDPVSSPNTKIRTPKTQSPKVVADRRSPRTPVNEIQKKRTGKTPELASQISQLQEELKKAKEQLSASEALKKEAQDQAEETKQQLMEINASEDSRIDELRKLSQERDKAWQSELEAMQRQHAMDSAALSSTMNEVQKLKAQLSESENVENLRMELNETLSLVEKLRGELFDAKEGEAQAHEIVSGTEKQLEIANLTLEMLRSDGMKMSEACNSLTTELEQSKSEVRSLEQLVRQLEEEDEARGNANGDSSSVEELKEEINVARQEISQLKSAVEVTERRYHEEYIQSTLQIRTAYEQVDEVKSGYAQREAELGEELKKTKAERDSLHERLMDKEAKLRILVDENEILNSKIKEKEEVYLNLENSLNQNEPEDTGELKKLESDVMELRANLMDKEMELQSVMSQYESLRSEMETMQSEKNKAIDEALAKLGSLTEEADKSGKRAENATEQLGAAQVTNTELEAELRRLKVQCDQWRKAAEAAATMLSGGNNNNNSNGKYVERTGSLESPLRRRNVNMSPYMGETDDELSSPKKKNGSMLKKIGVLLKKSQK
The experiment is described as above.

Experiment [9] concerns the target T4, ICR5, yeast two-hybrid fusion (Arabidopsis). The description is as above.

B1: ICR3 (interactor of constitutively active ROP 3) fused to a half of YFP for BiFC (protein, UniProt Q9LSS5 1-564)
chain: MQTQKARNGSPDVPKKVSPRAARPLKIAALEPESSSSPISATNRTPKDKSPNVLNRRSPRSPVSEKKRPSRITELELLVSQLQEELKKAKDQISVSETSKKQAEQEAEESRKQLQEVSSKLEESQNQFVETSALEEETDKTGSLVFQSVSQECDWEFSATAGERAGLAAVAHEIRQLKLQIEMVASSEAGHVKQAELYNSEVQLLRGNLMDTLFHVENFRNQLKDCEISEAETEALATETLRQLENAKKAVEELKSDGTKAVESYKKMAVELEQSKSRMVWLEALVNKLQNNPADLENHEILLKDYESLRRGESNEMDEEVSSLRCEVERLRAALEASDKKDQEGNVEASSRLRIQAELQSELKIAKSEIDELKARLMDKETELQFISEERDNFSMKLMKNQKEIDVEAELKKLREAIENLKADLMDKETELQIVSDENETLKSDIHKSETDVQDAFLKLGIAMEEADKSSKKAVRVTEQLEATQASNSEMETELRKLKVQSNQWRKAAEAATAMLSAGNNGKFAENYNQTNSPYSEDIDDELTKKKNGNVLKKIGVLWKKPQK
As to B1, the binding result is “binds” in experiment [1], “no binding” in [2] and “no binding” in experiment [3].

B2: ICR3, yeast two-hybrid fusion (protein, UniProt Q9LSS5 1-564)
chain: MQTQKARNGSPDVPKKVSPRAARPLKIAALEPESSSSPISATNRTPKDKSPNVLNRRSPRSPVSEKKRPSRITELELLVSQLQEELKKAKDQISVSETSKKQAEQEAEESRKQLQEVSSKLEESQNQFVETSALEEETDKTGSLVFQSVSQECDWEFSATAGERAGLAAVAHEIRQLKLQIEMVASSEAGHVKQAELYNSEVQLLRGNLMDTLFHVENFRNQLKDCEISEAETEALATETLRQLENAKKAVEELKSDGTKAVESYKKMAVELEQSKSRMVWLEALVNKLQNNPADLENHEILLKDYESLRRGESNEMDEEVSSLRCEVERLRAALEASDKKDQEGNVEASSRLRIQAELQSELKIAKSEIDELKARLMDKETELQFISEERDNFSMKLMKNQKEIDVEAELKKLREAIENLKADLMDKETELQIVSDENETLKSDIHKSETDVQDAFLKLGIAMEEADKSSKKAVRVTEQLEATQASNSEMETELRKLKVQSNQWRKAAEAATAMLSAGNNGKFAENYNQTNSPYSEDIDDELTKKKNGNVLKKIGVLWKKPQK
On to B2, for which the binding result in experiment [4] and in [5] was “no binding” in each case.

B3: ICR5 (interactor of constitutively active ROP 5) fused to a half of YFP for BiFC (protein, UniProt Q8VYU8 1-396)
chain: MQTPKSRPGSLELPQKKSPLPAPKVVRRLKPSGAESDPKTKTISKTQIPKVVADRRSARIPLNEIQKKRTGRIPELESTISQLQEELKKAKEELNRSEALKREAQEEAEDAKHQLMDINASEDSRIEELRKLSQERDKTWQSELEAMQRQHGMDSTALSSAINEVQKLKSKLFESESELEQSKYEVRSLEKLVRQLEEERVNSRDSSSSMEVEELKEAMNLSRQEITQLKSAVEAAETRYQEEYIQSTLQIRSAYEQTEAVKSRYSQREAELTEELNRTKDEIEGLRKELMEKVKEDESTGDLKKLESDLMEVRGSLMDKEMELQILRSAMEKKVETANTEAMEAELKRVKIQCEQWRKAAETAASILNNDEERTDSIETSKMLKKFGVLLKKNHK
For B3, the binding result is given as “binds” in experiment [1], “no binding” in [2] and “no binding” in [3].

B4: ICR5-YC (interactor of constitutively active ROP 5 fused to the C-terminal half of YFP) (protein, UniProt Q8VYU8 1-396)
chain: MQTPKSRPGSLELPQKKSPLPAPKVVRRLKPSGAESDPKTKTISKTQIPKVVADRRSARIPLNEIQKKRTGRIPELESTISQLQEELKKAKEELNRSEALKREAQEEAEDAKHQLMDINASEDSRIEELRKLSQERDKTWQSELEAMQRQHGMDSTALSSAINEVQKLKSKLFESESELEQSKYEVRSLEKLVRQLEEERVNSRDSSSSMEVEELKEAMNLSRQEITQLKSAVEAAETRYQEEYIQSTLQIRSAYEQTEAVKSRYSQREAELTEELNRTKDEIEGLRKELMEKVKEDESTGDLKKLESDLMEVRGSLMDKEMELQILRSAMEKKVETANTEAMEAELKRVKIQCEQWRKAAETAASILNNDEERTDSIETSKMLKKFGVLLKKNHK
Consider B4, for which the binding entry in experiment [6] is “no binding”; with YN-ROP11, “binds”.

B5: ICR2, yeast two-hybrid fusion (protein, UniProt Q9ZQC5 1-583)
chain: MQTPKPRPGSLEVPQKKSPASTPKTARKLKTSESDPVSSPNTKIRTPKTQSPKVVADRRSPRTPVNEIQKKRTGKTPELASQISQLQEELKKAKEQLSASEALKKEAQDQAEETKQQLMEINASEDSRIDELRKLSQERDKAWQSELEAMQRQHAMDSAALSSTMNEVQKLKAQLSESENVENLRMELNETLSLVEKLRGELFDAKEGEAQAHEIVSGTEKQLEIANLTLEMLRSDGMKMSEACNSLTTELEQSKSEVRSLEQLVRQLEEEDEARGNANGDSSSVEELKEEINVARQEISQLKSAVEVTERRYHEEYIQSTLQIRTAYEQVDEVKSGYAQREAELGEELKKTKAERDSLHERLMDKEAKLRILVDENEILNSKIKEKEEVYLNLENSLNQNEPEDTGELKKLESDVMELRANLMDKEMELQSVMSQYESLRSEMETMQSEKNKAIDEALAKLGSLTEEADKSGKRAENATEQLGAAQVTNTELEAELRRLKVQCDQWRKAAEAAATMLSGGNNNNNSNGKYVERTGSLESPLRRRNVNMSPYMGETDDELSSPKKKNGSMLKKIGVLLKKSQK
As for B5, the binding entry in experiment [7], in experiment [8] and in [9] was “no binding” in each case.
